# Source: paper PMC12820563, “FoxP3 forms a head-to-head dimer in vivo and stabilizes its multimerization on adjacent microsatellites”
# The other results are listed elsewhere or left out.
# Molecular target: T1, MBP-FoxP1dN (Mus musculus, UniProt P58462 326-579)
# T1 sequence: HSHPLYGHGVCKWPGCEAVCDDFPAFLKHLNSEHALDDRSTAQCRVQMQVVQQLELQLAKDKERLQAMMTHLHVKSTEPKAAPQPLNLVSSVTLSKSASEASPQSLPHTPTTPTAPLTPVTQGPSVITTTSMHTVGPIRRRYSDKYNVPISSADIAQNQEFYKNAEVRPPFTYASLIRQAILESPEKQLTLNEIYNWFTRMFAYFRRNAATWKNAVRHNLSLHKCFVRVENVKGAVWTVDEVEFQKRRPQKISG
# Assay: PD-seq (MBP pull-down with sequencing); 20 mM Tris-HCl pH 7.5, 100 mM NaCl, 1.5 mM MgCl2, 0.4 uM protein, 0.1 uM dsDNA library, 30 min, room temperature, amylose pull-down; high values mean tight binding
# Conditions: protein: recombinant; tags: His6-MBP; chain copies: 2; dsDNA, one strand shown
# Summary of the method: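 His6-MBP-tagged mouse FoxP3 or FoxP1 fragment lacking the N-terminus, expressed in E. coli, was mixed at 0.4 µM with 0.1 µM Klenow-filled double-stranded degenerate DNA library. Incubation was 30 min at room temperature in Tris pH 7.5 buffer with NaCl and MgCl2. Complexes were caught on amylose resin and washed three times; DNA was released with proteinase K, PCR-barcoded and Illumina-sequenced. Binding is reads-per-million enrichment, pull-down over input, with replicates pooled.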
row,Sequence,binding signal
1,GATGATTGTTCTCCCAGCTGATGAATTTTATAGTTCGAGTAAACAAATTTTCCTAATCTTTCTGTTCAAGCGCCATCTAC,0.932 RPM ratio (pull-down/input)
2,GATGATTGTTCTCCCAGCTGATGAATTATCGACTTCGAGTAAACAAATTTTCCTAATCTTTCTGTTCAAGCGCCATCTAC,0.945 RPM ratio (pull-down/input)
3,GATGATTGTTCTCCCAGCTGATGAATTGAGCCCTTCGAGTAAACAAATTTTCCTAATCTTTCTGTTCAAGCGCCATCTAC,0.844 RPM ratio (pull-down/input)
4,GATGATTGTTCTCCCAGCTGATGAATTTCGTTTGTCGAGTAAACAAATTTTCCTAATCTTTCTGTTCAAGCGCCATCTAC,1.18 RPM ratio (pull-down/input)
5,GATGATTGTTCTCCCAGCTGATGAATTCTAGTTATCGAGTAAACAAATTTTCCTAATCTTTCTGTTCAAGCGCCATCTAC,1.11 RPM ratio (pull-down/input)
6,GATGATTGTTCTCCCAGCTGATGAATTGACTAGCTCGAGTAAACAAATTTTCCTAATCTTTCTGTTCAAGCGCCATCTAC,0.953 RPM ratio (pull-down/input)
7,GATGATTGTTCTCCCAGCTGATGAATTGATCTACTCGAGTAAACAAATTTTCCTAATCTTTCTGTTCAAGCGCCATCTAC,1.03 RPM ratio (pull-down/input)
8,GATGATTGTTCTCCCAGCTGATGAATTGGCGGCTTCGAGTAAACAAATTTTCCTAATCTTTCTGTTCAAGCGCCATCTAC,0.752 RPM ratio (pull-down/input)
9,GATGATTGTTCTCCCAGCTGATGAATTCGCATAATCGAGTAAACAAATTTTCCTAATCTTTCTGTTCAAGCGCCATCTAC,1.22 RPM ratio (pull-down/input)
10,GATGATTGTTCTCCCAGCTGATGAATTACCAGCCTCGAGTAAACAAATTTTCCTAATCTTTCTGTTCAAGCGCCATCTAC,0.937 RPM ratio (pull-down/input)
11,GATGATTGTTCTCCCAGCTGATGAATTCAGCTTCTCGAGTAAACAAATTTTCCTAATCTTTCTGTTCAAGCGCCATCTAC,0.851 RPM ratio (pull-down/input)
12,GATGATTGTTCTCCCAGCTGATGAATTGACGCTGTCGAGTAAACAAATTTTCCTAATCTTTCTGTTCAAGCGCCATCTAC,1.05 RPM ratio (pull-down/input)
13,GATGATTGTTCTCCCAGCTGATGAATTAACCCGGTCGAGTAAACAAATTTTCCTAATCTTTCTGTTCAAGCGCCATCTAC,0.782 RPM ratio (pull-down/input)
14,GATGATTGTTCTCCCAGCTGATGAATTAAGGTAATCGAGTAAACAAATTTTCCTAATCTTTCTGTTCAAGCGCCATCTAC,1.47 RPM ratio (pull-down/input)
15,GATGATTGTTCTCCCAGCTGATGAATTGATCGGTTCGAGTAAACAAATTTTCCTAATCTTTCTGTTCAAGCGCCATCTAC,0.898 RPM ratio (pull-down/input)
16,GATGATTGTTCTCCCAGCTGATGAATTCAGTTCGTCGAGTAAACAAATTTTCCTAATCTTTCTGTTCAAGCGCCATCTAC,0.848 RPM ratio (pull-down/input)
17,GATGATTGTTCTCCCAGCTGATGAATTCTAGATATCGAGTAAACAAATTTTCCTAATCTTTCTGTTCAAGCGCCATCTAC,0.945 RPM ratio (pull-down/input)
18,GATGATTGTTCTCCCAGCTGATGAATTGTTTCGTTCGAGTAAACAAATTTTCCTAATCTTTCTGTTCAAGCGCCATCTAC,1.27 RPM ratio (pull-down/input)
19,GATGATTGTTCTCCCAGCTGATGAATTAGTTGACTCGAGTAAACAAATTTTCCTAATCTTTCTGTTCAAGCGCCATCTAC,0.998 RPM ratio (pull-down/input)
20,GATGATTGTTCTCCCAGCTGATGAATTGAGCCATTCGAGTAAACAAATTTTCCTAATCTTTCTGTTCAAGCGCCATCTAC,0.805 RPM ratio (pull-down/input)
21,GATGATTGTTCTCCCAGCTGATGAATTCATAACCTCGAGTAAACAAATTTTCCTAATCTTTCTGTTCAAGCGCCATCTAC,0.896 RPM ratio (pull-down/input)

row,Sequence,binding signal
1,GATGATTGTTCTCCCAGCTGATGAATTCTTGTTGTCGAGTAAACAAATTTTCCTAATCTTTCTGTTCAAGCGCCATCTAC,2.6 RPM ratio (pull-down/input)
2,GATGATTGTTCTCCCAGCTGATGAATTGATGACCTCGAGTAAACAAATTTTCCTAATCTTTCTGTTCAAGCGCCATCTAC,1.02 RPM ratio (pull-down/input)
3,GATGATTGTTCTCCCAGCTGATGAATTAGTCTGATCGAGTAAACAAATTTTCCTAATCTTTCTGTTCAAGCGCCATCTAC,0.895 RPM ratio (pull-down/input)
4,GATGATTGTTCTCCCAGCTGATGAATTGTGAACTTCGAGTAAACAAATTTTCCTAATCTTTCTGTTCAAGCGCCATCTAC,1.01 RPM ratio (pull-down/input)
5,GATGATTGTTCTCCCAGCTGATGAATTTCCGTACTCGAGTAAACAAATTTTCCTAATCTTTCTGTTCAAGCGCCATCTAC,0.85 RPM ratio (pull-down/input)
6,GATGATTGTTCTCCCAGCTGATGAATTAAAGAATTCGAGTAAACAAATTTTCCTAATCTTTCTGTTCAAGCGCCATCTAC,0.892 RPM ratio (pull-down/input)
7,GATGATTGTTCTCCCAGCTGATGAATTTCAGGTTTCGAGTAAACAAATTTTCCTAATCTTTCTGTTCAAGCGCCATCTAC,0.841 RPM ratio (pull-down/input)
8,GATGATTGTTCTCCCAGCTGATGAATTCGATCAATCGAGTAAACAAATTTTCCTAATCTTTCTGTTCAAGCGCCATCTAC,1.05 RPM ratio (pull-down/input)
9,GATGATTGTTCTCCCAGCTGATGAATTTTGAGAATCGAGTAAACAAATTTTCCTAATCTTTCTGTTCAAGCGCCATCTAC,0.914 RPM ratio (pull-down/input)
10,GATGATTGTTCTCCCAGCTGATGAATTGGCCGTGTCGAGTAAACAAATTTTCCTAATCTTTCTGTTCAAGCGCCATCTAC,0.836 RPM ratio (pull-down/input)
11,GATGATTGTTCTCCCAGCTGATGAATTCCGGATGTCGAGTAAACAAATTTTCCTAATCTTTCTGTTCAAGCGCCATCTAC,0.78 RPM ratio (pull-down/input)
12,GATGATTGTTCTCCCAGCTGATGAATTGGCTATGTCGAGTAAACAAATTTTCCTAATCTTTCTGTTCAAGCGCCATCTAC,0.854 RPM ratio (pull-down/input)
13,GATGATTGTTCTCCCAGCTGATGAATTCTTGAAATCGAGTAAACAAATTTTCCTAATCTTTCTGTTCAAGCGCCATCTAC,1.04 RPM ratio (pull-down/input)
14,GATGATTGTTCTCCCAGCTGATGAATTCTGTACATCGAGTAAACAAATTTTCCTAATCTTTCTGTTCAAGCGCCATCTAC,1.09 RPM ratio (pull-down/input)
15,GATGATTGTTCTCCCAGCTGATGAATTGTTGAGATCGAGTAAACAAATTTTCCTAATCTTTCTGTTCAAGCGCCATCTAC,1.25 RPM ratio (pull-down/input)
16,GATGATTGTTCTCCCAGCTGATGAATTTAAGTTTTCGAGTAAACAAATTTTCCTAATCTTTCTGTTCAAGCGCCATCTAC,1.16 RPM ratio (pull-down/input)
17,GATGATTGTTCTCCCAGCTGATGAATTTTACTTTTCGAGTAAACAAATTTTCCTAATCTTTCTGTTCAAGCGCCATCTAC,0.937 RPM ratio (pull-down/input)
18,GATGATTGTTCTCCCAGCTGATGAATTGAATTGGTCGAGTAAACAAATTTTCCTAATCTTTCTGTTCAAGCGCCATCTAC,0.837 RPM ratio (pull-down/input)
19,GATGATTGTTCTCCCAGCTGATGAATTGCGCGAGTCGAGTAAACAAATTTTCCTAATCTTTCTGTTCAAGCGCCATCTAC,0.96 RPM ratio (pull-down/input)
20,GATGATTGTTCTCCCAGCTGATGAATTTAACTAATCGAGTAAACAAATTTTCCTAATCTTTCTGTTCAAGCGCCATCTAC,1.03 RPM ratio (pull-down/input)
21,GATGATTGTTCTCCCAGCTGATGAATTCGTGAACTCGAGTAAACAAATTTTCCTAATCTTTCTGTTCAAGCGCCATCTAC,0.851 RPM ratio (pull-down/input)

row,Sequence,binding signal
1,GATGATTGTTCTCCCAGCTGATGAATTAGTTCACTCGAGTAAACAAATTTTCCTAATCTTTCTGTTCAAGCGCCATCTAC,0.966 RPM ratio (pull-down/input)
2,GATGATTGTTCTCCCAGCTGATGAATTAATGGTGTCGAGTAAACAAATTTTCCTAATCTTTCTGTTCAAGCGCCATCTAC,1 RPM ratio (pull-down/input)
3,GATGATTGTTCTCCCAGCTGATGAATTGACAATTTCGAGTAAACAAATTTTCCTAATCTTTCTGTTCAAGCGCCATCTAC,1.39 RPM ratio (pull-down/input)
4,GATGATTGTTCTCCCAGCTGATGAATTGCTTGCTTCGAGTAAACAAATTTTCCTAATCTTTCTGTTCAAGCGCCATCTAC,1.11 RPM ratio (pull-down/input)
5,GATGATTGTTCTCCCAGCTGATGAATTACCTCATTCGAGTAAACAAATTTTCCTAATCTTTCTGTTCAAGCGCCATCTAC,1.01 RPM ratio (pull-down/input)
6,GATGATTGTTCTCCCAGCTGATGAATTACAAAGTTCGAGTAAACAAATTTTCCTAATCTTTCTGTTCAAGCGCCATCTAC,1.37 RPM ratio (pull-down/input)
7,GATGATTGTTCTCCCAGCTGATGAATTACAGGATTCGAGTAAACAAATTTTCCTAATCTTTCTGTTCAAGCGCCATCTAC,1.06 RPM ratio (pull-down/input)
8,GATGATTGTTCTCCCAGCTGATGAATTCAGCTGGTCGAGTAAACAAATTTTCCTAATCTTTCTGTTCAAGCGCCATCTAC,0.947 RPM ratio (pull-down/input)
9,GATGATTGTTCTCCCAGCTGATGAATTGTGGAGCTCGAGTAAACAAATTTTCCTAATCTTTCTGTTCAAGCGCCATCTAC,0.84 RPM ratio (pull-down/input)
10,GATGATTGTTCTCCCAGCTGATGAATTTCGCTACTCGAGTAAACAAATTTTCCTAATCTTTCTGTTCAAGCGCCATCTAC,0.848 RPM ratio (pull-down/input)
11,GATGATTGTTCTCCCAGCTGATGAATTAACCGCATCGAGTAAACAAATTTTCCTAATCTTTCTGTTCAAGCGCCATCTAC,1.12 RPM ratio (pull-down/input)
12,GATGATTGTTCTCCCAGCTGATGAATTAGCGACTTCGAGTAAACAAATTTTCCTAATCTTTCTGTTCAAGCGCCATCTAC,0.879 RPM ratio (pull-down/input)
13,GATGATTGTTCTCCCAGCTGATGAATTTTAGCAGTCGAGTAAACAAATTTTCCTAATCTTTCTGTTCAAGCGCCATCTAC,0.811 RPM ratio (pull-down/input)
14,GATGATTGTTCTCCCAGCTGATGAATTGTTAAGATCGAGTAAACAAATTTTCCTAATCTTTCTGTTCAAGCGCCATCTAC,1.11 RPM ratio (pull-down/input)
15,GATGATTGTTCTCCCAGCTGATGAATTTCCGAAGTCGAGTAAACAAATTTTCCTAATCTTTCTGTTCAAGCGCCATCTAC,0.787 RPM ratio (pull-down/input)
16,GATGATTGTTCTCCCAGCTGATGAATTTAGGTTCTCGAGTAAACAAATTTTCCTAATCTTTCTGTTCAAGCGCCATCTAC,0.901 RPM ratio (pull-down/input)
17,GATGATTGTTCTCCCAGCTGATGAATTCCTGACATCGAGTAAACAAATTTTCCTAATCTTTCTGTTCAAGCGCCATCTAC,0.897 RPM ratio (pull-down/input)
18,GATGATTGTTCTCCCAGCTGATGAATTGCCTATTTCGAGTAAACAAATTTTCCTAATCTTTCTGTTCAAGCGCCATCTAC,1.12 RPM ratio (pull-down/input)
19,GATGATTGTTCTCCCAGCTGATGAATTCTCCGCTTCGAGTAAACAAATTTTCCTAATCTTTCTGTTCAAGCGCCATCTAC,0.94 RPM ratio (pull-down/input)
20,GATGATTGTTCTCCCAGCTGATGAATTCCTCGGATCGAGTAAACAAATTTTCCTAATCTTTCTGTTCAAGCGCCATCTAC,0.795 RPM ratio (pull-down/input)
21,GATGATTGTTCTCCCAGCTGATGAATTCAAAGCCTCGAGTAAACAAATTTTCCTAATCTTTCTGTTCAAGCGCCATCTAC,0.795 RPM ratio (pull-down/input)
